Test results published in patent US20090143279A1 (priority 2007, published 2009).

Tested on: cellular ATP levels
Details: not given

Molecule | ATP
C[C@@H]1[C@H](O)[C@@H](C)/C=C/C=C/C=C/C=C/C=C/C=C/C=C/[C@H](O[C@@H]2O[C@H](C)[C@@H](O)[C@H](N)[C@@H]2O)C[C@@H]2O[C@](O)(C[C@@H](O)C[C@@H](O)[C@H](O)CC[C@@H](O)C[C@@H](O)CC(=O)O[C@H]1C)C[C@H](O)[C@H]2C(=O)O [amphotericin B] | 0.880
CCCCC(CC)CNC(=N)NC(=N)NCCCCCCNC(=N)NC(=N)NCC(CC)CCCC (stereo not shown) [alexidine] | −5.106

Same assay, conditions: 14.26 μM; composite Z-score vs DMSO

Molecule | ATP
CCN(CC)CCNC(=O)COc1ccc(OC)cc1 [mefexamide] | −0.271

Same assay, conditions: 20 μM; composite Z-score vs DMSO

Molecule | ATP
CC1(C)[C@H]2CC[C@@]1(C)C(=O)C2 [1r-camphor] | 0.270
C=CCc1ccc(O)c(OC)c1 [eugenol] | 0.081
Nc1ccc(C(=O)[O-])cc1.[K+] [potassium p-aminobenzoate] | −0.299
CC(C)(O)[C@@H]1[C@H]2OC(=O)[C@@H]1[C@]1(O)C[C@H]3O[C@]34C(=O)O[C@H]2[C@]14C [picrotin] | 0.205
CCN(CC)CCNC(=O)COc1ccc(OC)cc1 [mefexamide] | −0.606
CCCCC(CC)CNC(=N)NC(=N)NCCCCCCNC(=N)NC(=N)NCC(CC)CCCC (stereo not shown) [alexidine] | −1.715

Same assay, conditions: Conc 20 μM; normalized score vs mock-treated (DMSO) wells

Molecule | ATP (composite Z-score)
O=C(O)c1nc2cc(Cl)c(Cl)cc2nc1O | 0.893
CC(=O)O[C@H]1C[C@@H](OC(C)=O)C(C)(C)[C@@H]2C[C@@H](OC(C)=O)[C@@]3(C)C4=CC(=O)O[C@@H](c5ccoc5)[C@]4(C)CC[C@@H]3[C@@]12C [deoxykhivorin] | −0.330
Oc1ccc2c(c1)O[C@H](c1ccc(O)c(O)c1)[C@@H](O)C2 [fisetinidol, reference compound] | 0.542
Cc1c(O)c(C(=O)CC(C)C)c2oc3c(C(=O)CC(C)C)c(O)c(C)c(O)c3c2c1O [rhodomyrtoxin] | −2.765
COc1ccc(-c2c(OC)c3c(OC)c4c(cc3oc2=O)OC(C)(C)C=C4)cc1 [robustic acid methyl ether, reference compound] | −0.589
O=C(O)c1cc(O)c2c(c1)C(=O)c1cc(O)cc(O)c1C2=O [emodic acid] | −0.639
CC(=O)O[C@H]1CC[C@]2(C)C(C[C@H](OC(C)=O)[C@]3(C)C4=CC(=O)OC(c5ccoc5)[C@@]4(C)CCC23)C1(C)C (stereo partly shown) | −0.198
COc1cc(O)c2c(=O)c(-c3ccc(O)cc3)coc2c1OC [isotectorigenin, 7-methyl ether] | −1.101
COc1cc2c(cc1OC)[C@@]13CCN4CC5=CCO[C@H]6CC(=O)N2[C@H]1[C@H]6[C@H]5C[C@H]43 [brucine] | 0.579

Same assay, conditions: Conc 27.36 μM; normalized score vs mock-treated (DMSO) wells

Molecule | ATP (composite Z-score)
c1cncc(C2=NCCC2)c1 [myosmine] | 2.062

Same assay, conditions: Table 4; C2C12 myotubes, 48 h, composite Z-score

Molecule | ATP
COc1cc2c(cc1OC)[C@@H]1C(=O)c3c(O)cc4c(c3O[C@@H]1CO2)C=CC(C)(C)O4 [alpha-toxicarol, reference compound] | −2.946
COc1cc2c(cc1OC)[C@@H]1C(=O)c3ccc4c(c3O[C@@H]1CO2)CC(C(C)C)O4 (stereo partly drawn) [beta-dihydrorotenone, reference compound] | −2.497

Same assay, conditions: composite Z-score vs DMSO wells; Conc 20 μM

Molecule | ATP
C[C@]12CC[C@@H]3c4ccc(O)cc4CC[C@H]3[C@@H]1CC[C@@H]2OC(=O)CCC1CCCC1 [estradiol cypionate] | 0.452
OCc1ccccc1O [salicyl alcohol] | 0.113
CC(=O)N[C@@H](CC(=O)N[C@@H](CCC(=O)O)C(=O)O)C(=O)O [spaglumic acid] | 0.357
O=c1cc(-c2ccccc2)oc2cc(O)cc(O)c12 [chrysin] | 0.097
CCCOc1ccccc1-c1nc2nn[nH]c2c(=O)[nH]1 [zaprinast] | 1.768

Same assay, conditions: composite Z-score vs DMSO; Conc 10.24 μM

Molecule | ATP
C[N+]1(CCCCC[N+]2(C)CCCC2)CCCC1 [pentolinium] | 1.449

Same assay, conditions: composite Z-score vs DMSO; Conc 20 μM

Molecule | ATP
O=c1cc(-c2ccc(O)cc2)oc2cc(O[C@@H]3O[C@H](CO)[C@@H](O)[C@H](O)[C@H]3O[C@@H]3OC[C@](O)(CO)[C@H]3O)cc(O)c12 [apiin] | −0.267
CO/N=C(\C(=O)N[C@@H]1C(=O)N2C(C(=O)OCOC(=O)C(C)(C)C)=C(/C=C\c3scnc3C)CS[C@H]12)c1csc(N)n1 [cefditorin pivoxil] | 1.534
COc1ccc(-c2coc3c(O)c(OC)ccc3c2=O)cc1 [retusin 7-methyl ether] | −0.148
COc1ccc2c(c1OC)C(=O)O[C@@H]2[C@H]1c2cc3c(cc2CCN1C)OCO3 [1s,9r-hydrastine] | 0.403
beta-sitosterol | −0.419
CC[C@@H](C)C(=O)O[C@H]1[C@H](O)[C@H]2[C@@H](CN3C[C@@H](C)CC[C@H]3[C@@]2(C)O)[C@@H]2C[C@]34O[C@]5(O)[C@@H](OC(=O)[C@](C)(O)[C@@H](C)O)CC[C@@]3(C)[C@@H]5[C@@H](OC(C)=O)[C@@H](OC(C)=O)[C@H]4[C@@]21O (stereo in doubt) [protoveratrine B] | 0.029
Cc1cc(O)c(C)c(O)c1C(=O)O [3-methylorsellinic acid] | 1.932
COC(=O)[C@]1(C)CC[C@]2(C)CC[C@]3(C)C4=CC=C5C(=CC(=O)C(O)=C5C)[C@]4(C)CC[C@@]3(C)[C@@H]2C1 [pristimerin] | −8.234
CC(C)(OC(=O)c1ccccc1)[C@@H]1Cc2cc3ccc(=O)oc3cc2O1 [felamidin] | 0.238
COC(=O)c1c(C)cc(O)cc1O [methyl orsellinate] | 0.487
CO[C@H]1C[C@H](O[C@H]2[C@H](C)[C@@H](O[C@@H]3O[C@H](C)C[C@H](N(C)C)[C@H]3OC(C)=O)[C@@H](C)C[C@@]3(CO3)C(=O)[C@H](C)[C@@H](OC(C)=O)[C@@H](C)[C@@H](C)OC(=O)[C@@H]2C)O[C@@H](C)[C@@H]1OC(C)=O [troleandomycin] | 0.194
COc1ccc(-c2c(O)c3c(OC)c4c(cc3oc2=O)OC(C)(C)CC4)cc1 [dihydrorobustic acid, reference compound] | 2.345
COC(=O)c1c(C)c2c(c(C)c1O)OC(=O)c1c(C)c(Cl)c(O)c(Cl)c1O2 [leoidin] | −0.082
COc1ccc2c(c1)C1(C)CCC(O)CC1CC2 (stereo not shown) | 0.068
COc1ccc2c(c1)OCc1c-2oc2cc(OC)ccc12 [dehydrovariabilin] | −0.517
CC[C@@H](C(=O)[C@@H](C)[C@@H](O)[C@H](C)CCc1ccc(C)c(O)c1C(=O)O)[C@H]1O[C@](CC)([C@H]2CC[C@](O)(CC)[C@H](C)O2)C[C@@H]1C [lasalocid, reference compound] | −0.906
Cn1c(=O)[nH]c(=O)c2[nH]cnc21 [3-methylxanthine] | 0.704
COc1cc2c(cc1OC)[C@@H]1C(=O)c3c(O)cc4c(c3O[C@@H]1CO2)C=CC(C)(C)O4 [alpha-toxicarol, reference compound] | −2.946
avermectin B1 | −0.108
dimenhydrinate | −0.597
C[N+]1(CCCCC[N+]2(C)CCCC2)CCCC1 [pentolinium] | 0.247
O=C(O)CF [sodium fluoroacetate] | 0.006
COc1cc2c(cc1OC)[C@@H]1C(=O)c3ccc4c(c3O[C@@H]1CO2)CC(C(C)C)O4 (stereo partly drawn) [beta-dihydrorotenone, reference compound] | −2.497
O=[N+]([O-])NC1=NCCN1Cc1ccc(Cl)nc1 [imidacloprid] | −0.094

Same assay, conditions: composite Z-score vs mock-treated (DMSO) wells; Conc 20 μM

Molecule | ATP
C=CC(C1=CC(=O)C(OC)=CC1=O)c1ccc(O)cc1 (stereo not shown) [4-methoxy-4′-hydroxy-dalbergione] | 1.255
COc1cc(O)c2c(=O)cc(C)oc2c1CC=C(C)C [heteropeucenin, methyl ether] | −0.142
CC(C)c1c(O)ccc2c1CC[C@H]1[C@@](C)(CO)CCC[C@]21C [19-hydroxytotarol] | 0.803
CC(C)c1c(O)ccc2c1CCC1[C@@](C)(C=O)CCC[C@]21C (stereo partly shown) [totaralolal] | 0.829
CCC(C)C(=O)O[C@@H]1C[C@@]2(C)[C@H](c3ccoc3)OC(=O)CC23OC2(C)O[C@]14[C@]1(C)[C@@H](CC(=O)OC)C5(C)CC1(O)[C@](O)(C5OC(=O)C1(C)OC1C)[C@@H](OC(C)=O)[C@]34O2 (stereo partly shown) [utilin] | 1.189
CCC(C)C(=O)OC1[C@@H]2CC3=C4CC(=O)O[C@@H](c5ccoc5)[C@]4(C)CCC3[C@@](C)(C2=O)[C@@H](CC(=O)OC)C1(C)C (stereo partly shown) [khayasin] | 0.871
CC(=O)O[C@@H]1CC2C(C)(C)CCC[C@]2(C)C2CC[C@]3(C)C(=CC(=O)O[C@H]3c3ccoc3)[C@@]21C (stereo partly shown) [deoxodeoxydihydrogedunin] | 0.419
7-deshydroxypyrogallin-4-carboxylic acid | 0.330
Cc1cc(O)cc(O)c1C(=O)O [orsellinic acid] | −1.140
CC1(C)C(=O)C=C[C@@]2(C)C1CC(=O)[C@@]1(C)C3=CC(=O)O[C@@H](c4ccoc4)[C@]3(C)CCC12 (stereo partly shown) [7-deacetoxy-7-oxodeoxygedunin] | 0.609
C=C1C2=CC(=O)O[C@@H](c3ccoc3)[C@]2(C)CC[C@@H]1[C@@]1(C)C=CC(=O)C(C)(C)[C@@H]1CC(=O)OC [deoxyandirobin] | 1.237
COc1cc(-c2coc3cc(OC)c(OC)c(OC)c3c2=O)cc(OC)c1OC [irigenin trimethyl ether] | 0.108
C=C1CCC2C(CC2(C)C)C(=C)CCC1=NO (stereo not shown) [5-hydroxyiminoisocaryophyllene] | 0.874
COc1cc2c(cc1OC)[C@@H]1C(=O)c3ccc(O)c(CC=C(C)C)c3O[C@@H]1CO2 [rotenonic acid, reference compound] | 0.763

Same assay, conditions: normalized composite Z-score vs mock-treated (DMSO) wells; Conc 20 μM

Molecule | ATP
C[C@]12CC[C@H]3[C@@H](CC[C@]4(O)C[C@@H](O)CC[C@]34C(=O)O)[C@@]1(O)CC[C@@H]2C1=CC(=O)OC1 [strophanthidinic acid] | 0.463
CC(C)c1ccc2c(c1)CC[C@H]1[C@](C)(C(N)=O)CCC[C@]21C [dehydroabietamide] | 0.588
Nc1ccccc1C(=O)CC(N)C(=O)O (stereo not shown) [kynurenine] | 0.528
CC(=O)O[C@H]1CC[C@]2(C)[C@H]3C(=O)C=C4[C@@H]5[C@@H](C)[C@H](C)CC[C@]5(C(=O)O)CC[C@@]4(C)[C@]3(C)CC[C@H]2C1(C)C [11-oxoursolic acid acetate] | −1.477
COC(=O)c1c(OC)cc2c(c1C)Oc1c(Cl)c(O)c(Cl)c(C)c1C(=O)O2 [gangaleoidin] | −1.768
muurolladie-3-one | −0.436
2-hydroxy-5 (6)epoxy-tetrahydrocaryophyllene | −0.149
12a-hydroxy-5-deoxydehydromunduserone [reference compound] | −0.089
